Read-outs that look alike come from different tables or passages of the source.
T1: polypeptide YP7pep of human GPC3 (Asp511-Ser560) (human)
T1 construct: Synthetic peptide made by GL Biochem; also called polypeptide YP7pep protein
T1 peptide: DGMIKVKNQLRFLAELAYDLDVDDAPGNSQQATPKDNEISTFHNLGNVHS


What was measured:
[1] = molecular target: T2, human GPC3 (Gln25-His559)-His protein (Acro, Cat. No. GP3-H52H4) (human, UniProt P51654 25-559); assay: SPR (Biacore), antibody captured on Protein A chip
T2 construct: Bought protein; also called human GPC3-His protein; human GPC3-his protein; not shown: His tag
Experimental: (§1) The sample and running buffer was HBS-EP+ (10 mM HEPES, 150 mM NaCl, 3 mM EDTA, 0.05% surfactant P20) (GE Healthcare; BR-1006-69). The flow cell was set at 25° C. The sample block was set at 16° C. Both were pretreated with the running buffer. […] The association and dissociation processes of the antibody with the antigen protein were recorded, and finally, the chip was regenerated using Glycine pH 1.5 (GE Healthcare; BR-1003-54). […] The dissociation phase was monitored for up to 600 s and triggered by switching from the sample solution to the running buffer. The surface was regenerated by washing with 10 mM glycine solution (pH 1.5) at a flow rate of 30 μL/min for 30 s. The difference in bulk refractive index was corrected by subtracting the responses obtained from the goat anti-human Fc surface. Blank injections were also subtracted (double reference). To calculate the apparent KD and other kinetic parameters, the Langmuir 1:1 model was used.

[2] = molecular target: T3, human GPC3 on cells (HepG2 endogenous; CHO-K1 recombinant clones CHOK1-hGPC3.1C3, 2B5, 3E9) (human, UniProt P51654 25-554); assay: FACS on HepG2 cells
T3 construct: Full-length human GPC3 (NCBI NM_004484.3) transfected into CHO-K1; HepG2 expresses GPC3 endogenously; also called CHO-K1-human GPC3 cells; HepG2 cells

[3] = molecular target: T4, mouse GPC3-His protein (Sino Biological, Cat. No. 50989-M08B) (mouse, UniProt Q8CFZ4 25-558); assay: ELISA; antibody 10 nM
T4 construct: Bought protein; also called mouse GPC3 protein; not shown: His tag
Experimental: (§2) After incubation for 2 h at 37° C., the plate was washed 3 times with PBS.

[4] = molecular target: T4, mouse GPC3-His protein (Sino …); assay: ELISA; antibody 0.001 nM
Experimental: as §2

[5] = molecular target: T4, mouse GPC3-His protein (Sino …); assay: ELISA; antibody 0.01 nM
Experimental: as §2

[6] = molecular target: T4, mouse GPC3-His protein (Sino …); assay: ELISA; antibody 100 nM
Experimental: as §2

[7] = molecular target: T4, mouse GPC3-His protein (Sino …); assay: ELISA; antibody 0.1 nM
Experimental: as §2

[8] = molecular target: T4, mouse GPC3-His protein (Sino …); assay: ELISA; antibody 1 nM
Experimental: as §2

[9] = molecular target: T4, mouse GPC3-His protein (Sino …); assay: SPR (Biacore), antibody captured on Protein A chip
Experimental: as §1

[10] = molecular target: T4, mouse GPC3-His protein (Sino …); assay: ELISA; antibody 0.0001 nM
Experimental: as §2

[11] = molecular target: T2, human GPC3 (Gln25-His559)-His protein …; assay: ELISA; antibody 10 nM
Experimental: as §2

[12] = molecular target: T5, monkey GPC3-His protein (Acro, Cat. No. GP3-05225) (monkey, UniProt A5A6P7 25-559); assay: ELISA; antibody 10 nM
T5 construct: Bought protein; the soluble protein surely lacks signal peptide and C-terminal anchor region; also called monkey GPC3 protein; not shown: His tag
Experimental: as §2

[13] = molecular target: T2, human GPC3 (Gln25-His559)-His protein …; assay: ELISA; antibody 0.001 nM
Experimental: as §2

[14] = molecular target: T5, monkey GPC3-His protein (Acro, Cat. No. …); assay: ELISA; antibody 0.001 nM
Experimental: as §2

[15] = molecular target: T2, human GPC3 (Gln25-His559)-His protein …; assay: ELISA; antibody 0.01 nM
Experimental: as §2

[16] = molecular target: T5, monkey GPC3-His protein (Acro, Cat. No. …); assay: ELISA; antibody 0.01 nM
Experimental: as §2

[17] = molecular target: T1, polypeptide YP7pep of human GPC3 …; assay: ELISA on coated polypeptide YP7pep, HRP-labeled secondary antibody
Experimental: as §2

[18] = molecular target: T2, human GPC3 (Gln25-His559)-His protein …; assay: ELISA; antibody 100 nM
Experimental: as §2

[19] = molecular target: T5, monkey GPC3-His protein (Acro, Cat. No. …); assay: ELISA; antibody 100 nM
Experimental: as §2

[20] = molecular target: T2, human GPC3 (Gln25-His559)-His protein …; assay: ELISA; antibody 0.1 nM
Experimental: as §2

[21] = molecular target: T5, monkey GPC3-His protein (Acro, Cat. No. …); assay: ELISA; antibody 0.1 nM
Experimental: as §2

[22] = molecular target: T3, human GPC3 on cells (HepG2 endogenous; …); assay: FACS on CHO-K1-human GPC3 cells
[23] = molecular target: T2, human GPC3 (Gln25-His559)-His protein …; assay: ELISA; antibody 1 nM
Experimental: as §2

[24] = molecular target: T5, monkey GPC3-His protein (Acro, Cat. No. …); assay: ELISA; antibody 1 nM
Experimental: as §2

[25] = molecular target: T3, human GPC3 on cells (HepG2 endogenous; …); assay: FACS on HepG2 cells; remark: listed apart in the source
[26] = molecular target: T2, human GPC3 (Gln25-His559)-His protein …; assay: SPR (Biacore), antibody captured on Protein A chip; remark: listed apart in the source
Experimental: as §1

[27] = molecular target: T5, monkey GPC3-His protein (Acro, Cat. No. …); assay: SPR (Biacore), antibody captured on Protein A chip
Experimental: as §1

[28] = molecular target: T6, monkey GPC3 on HEK293T cells (monkey, UniProt A5A6P7 25-554); assay: FACS on HEK293T-monkey GPC3 cells
T6 construct: Full-length monkey GPC3 (NCBI XP_011739317.1) transfected into HEK293T; also called HEK293T-monkey GPC3 cells; HEK293T-monkey-GPC3

[29] = molecular target: T2, human GPC3 (Gln25-His559)-His protein …; assay: ELISA; antibody 0.0001 nM
Experimental: as §2

[30] = molecular target: T5, monkey GPC3-His protein (Acro, Cat. No. …); assay: ELISA; antibody 0.0001 nM
Experimental: as §2

T4 sequence (Q8CFZ4 25-558 limits assumed): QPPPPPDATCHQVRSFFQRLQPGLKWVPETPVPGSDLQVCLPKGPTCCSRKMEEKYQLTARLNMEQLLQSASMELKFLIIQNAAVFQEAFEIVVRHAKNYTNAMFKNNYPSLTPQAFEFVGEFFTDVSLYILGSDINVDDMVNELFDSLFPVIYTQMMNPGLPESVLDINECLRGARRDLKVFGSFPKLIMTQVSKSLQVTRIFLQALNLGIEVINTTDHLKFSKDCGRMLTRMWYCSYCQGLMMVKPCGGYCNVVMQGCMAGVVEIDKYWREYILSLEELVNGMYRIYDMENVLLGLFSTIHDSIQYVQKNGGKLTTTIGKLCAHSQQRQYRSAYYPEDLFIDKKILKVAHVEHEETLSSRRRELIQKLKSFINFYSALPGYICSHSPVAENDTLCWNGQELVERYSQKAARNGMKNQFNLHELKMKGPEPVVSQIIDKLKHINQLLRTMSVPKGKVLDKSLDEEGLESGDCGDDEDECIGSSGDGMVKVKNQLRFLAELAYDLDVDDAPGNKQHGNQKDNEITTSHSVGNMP

| OD450 [3] | OD450 [4] | OD450 [5] | OD450 [6] | OD450 [7] | OD450 [8] | Kd [9] | koff [9] | kon [9] | OD450 [10] | OD450 [11] | OD450 [13] | OD450 [15] | binding result [17] | OD450 [18] | OD450 [20] | Max MFI [22] | OD450 [23] | EC50 [25] | Max MFI [25] | Binder | other results |
| --- | --- | --- | --- | --- | --- | --- | --- | --- | --- | --- | --- | --- | --- | --- | --- | --- | --- | --- | --- | --- | --- |
|  |  |  |  |  |  |  |  |  |  |  |  |  |  |  |  |  |  |  |  | VHH-12 VHH-hFc (Fc fusion, VHH recombined with human IgG1 Fc (VHH-hFc); the junction is not described; also called VFIH-12) QVQLVESGGGLVQAGGSLRLSCAASGFTLENYAIGWFRQAPGKEREGVSYITGGTGTTVYADSVKGRFTISRDNTKNTVYLQMNSLKPEDTAVYFCATLKRTTAGGWPKPGRIGGQGTQVTVSS[human IgG1 Fc with changes left out] | Kd [1]: 16.7 nM; koff [1]: 0.0024 s⁻¹; kon [1]: 144000 M⁻¹ s⁻¹; EC50 [2]: 0.18 nM |
| 2.04 | 0.088 | 0.304 | 2.19 | 1.41 | 1.39 | 0.0813 nM | 4.25e-05 s⁻¹ | 524000 M⁻¹ s⁻¹ | 0.056 |  |  |  |  |  |  |  |  |  |  | Tab005 (T2-23 scFv-hFc) (Fc fusion, Control antibody: VL-(GGGGS)3-VH of T2-23 fused to human IgG1 Fc; also called T2-23 scFv-human IgG1 Fc) QSALTQPPSASGSPGQSVTISCTGTSSDVGGYNYVSWYQQYPGKAPKLLIYGNSNRPSGVPDRFSGSKSGTSASLAITGLQAEDGADYYCQSYDSSLRVVFGGGTKVTVLGGGGGSGGGGSGGGGSQVQLQESGGGLVQPGRSLRLSCAASGFTFSSYAMHWVRQAPGKGLEWVSAISSSGRSTYYADSVEGRFTISRDNSKNTLYLQMNSLRAEDTAVYYCAKDRRGSHADALNVWGQGTLVTVSS[human IgG1 Fc with changes left out] |  |
|  |  |  |  |  |  |  |  |  |  | 1.96 | 0.051 | 0.095 | no binding (tested: 100 nM) | 2.24 | 0.624 | 2240 | 1.72 | 9.22 nM | 2460 | S001-NB150-20(cyno+) VHH-hFc (Fc fusion, VHH recombined with human IgG1 Fc (VHH-hFc); the junction between VHH and Fc is not described) QVQLVESGGGLVQAGGSLKLSCAASGRSFSPYAMGWFRQAPGKDREFVAAISNSGGSTYYADAVKGRFSISRDNAKNTVYLQMNNLEPEDTAVYYCTGPVKRYSTDFQGGDYWGQGTQVTVSS[human IgG1 Fc with changes left out] | OD450 [12]: 2.01; OD450 [14]: 0.049; OD450 [16]: 0.097; OD450 [19]: 2.37; OD450 [21]: 0.684; OD450 [24]: 1.76; Kd [26]: 6.06 nM; koff [26]: 0.00241 s⁻¹; kon [26]: 398000 M⁻¹ s⁻¹; Kd [27]: 4.23 nM; koff [27]: 0.00103 s⁻¹; kon [27]: 243000 M⁻¹ s⁻¹; EC50 [28]: 57.6 nM; Max MFI [28]: 10400; OD450 [29]: 0.048; OD450 [30]: 0.046 |
| 0.55 | 0.049 | 0.059 | 0.324 | 0.153 | 0.461 | 5.74 nM | 0.00116 s⁻¹ | 203000 M⁻¹ s⁻¹ | 0.048 | 0.325 | 0.053 | 0.055 | no binding (tested: 100 nM) | 0.354 | 0.127 | 3510 | 0.282 | 0.71 nM | 2020 | S001-NB152-1 VHH-hFc (Fc fusion, VHH recombined with human IgG1 Fc (VHH-hFc); the junction is not described) QVQLVESGGGLVQAGGSLSLSCAASGRRFSTNVMGWFRQAPGKEREFLAAINWVIGNTNYAESVKGRFTISRDNAKETVYLQMDNLKVEDTAVYYCAGRSSYYTSSRREDYDYWGQGTQVTVSS[human IgG1 Fc with changes left out] | EC50 [22]: 0.37 nM; Kd [26]: 7.45 nM; koff [26]: 0.00114 s⁻¹; kon [26]: 153000 M⁻¹ s⁻¹; Kd [27]: 5.63 nM; koff [27]: 0.000983 s⁻¹; kon [27]: 175000 M⁻¹ s⁻¹; EC50 [28]: 0.77 nM; Max MFI [28]: 15500; OD450 [29]: 0.046; OD450 [30]: 0.045 |
